Measurements: article PMC2363329, “Interaction of the PA2G4 (EBP1) protein with ErbB-3 and regulation of this binding by heregulin” (British Journal of Cancer, 2000)
No constants are given. Whether binding was seen depends on the method and setting. In cells and extracts the contact can be indirect. Some entries that bind do so weakly or less than the wild type. Sequences can lack the tags named with a protein.

Tests used:
Test in all cases: pull-down; data not shown: GST-ErbB-3 deletion mutants 665-1241, 665-1120, 665-931, 665-822 tested for binding to in vitro translated Ebp1 (grades in the diagram of Figure 4A); only the target purified
[1] = molecular target: T1, GST-erbB3 (aa 665-931) (rat) (UniProt Q62799)
T1 sequence: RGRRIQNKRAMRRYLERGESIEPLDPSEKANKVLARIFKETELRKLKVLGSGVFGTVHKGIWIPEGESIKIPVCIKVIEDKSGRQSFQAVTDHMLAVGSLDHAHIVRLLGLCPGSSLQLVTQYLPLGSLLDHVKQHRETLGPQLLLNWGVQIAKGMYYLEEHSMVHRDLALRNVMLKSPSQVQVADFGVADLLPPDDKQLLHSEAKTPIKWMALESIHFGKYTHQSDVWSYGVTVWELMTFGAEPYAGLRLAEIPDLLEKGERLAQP

[2] = molecular target: T2, GST-erbB3 (aa 665-1241) (rat) (UniProt Q62799)
T2 sequence: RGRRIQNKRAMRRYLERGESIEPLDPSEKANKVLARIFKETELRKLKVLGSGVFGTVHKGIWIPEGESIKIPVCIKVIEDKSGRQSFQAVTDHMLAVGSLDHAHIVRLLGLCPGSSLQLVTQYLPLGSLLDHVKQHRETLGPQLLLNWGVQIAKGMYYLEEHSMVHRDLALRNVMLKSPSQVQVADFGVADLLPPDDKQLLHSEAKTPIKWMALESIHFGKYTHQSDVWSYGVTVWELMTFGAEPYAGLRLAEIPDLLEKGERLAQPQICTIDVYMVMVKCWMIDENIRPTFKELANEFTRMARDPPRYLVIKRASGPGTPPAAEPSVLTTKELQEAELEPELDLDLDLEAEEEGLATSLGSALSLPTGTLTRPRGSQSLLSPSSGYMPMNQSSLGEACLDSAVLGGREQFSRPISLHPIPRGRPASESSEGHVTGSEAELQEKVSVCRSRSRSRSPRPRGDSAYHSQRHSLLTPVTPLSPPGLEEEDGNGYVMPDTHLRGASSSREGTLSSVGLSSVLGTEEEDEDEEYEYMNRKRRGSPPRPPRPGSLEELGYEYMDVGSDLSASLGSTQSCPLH

[3] = molecular target: T3, GST-erbB3 (aa 665-822) (rat) (UniProt Q62799)
T3 sequence: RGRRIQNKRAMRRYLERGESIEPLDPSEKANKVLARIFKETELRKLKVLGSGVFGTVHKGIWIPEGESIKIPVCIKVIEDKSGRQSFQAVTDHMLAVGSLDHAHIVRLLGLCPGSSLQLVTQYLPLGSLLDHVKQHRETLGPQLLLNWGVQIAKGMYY

[4] = molecular target: T4, GST-erbB3 (aa 665-1120) (rat) (UniProt Q62799)
T4 sequence: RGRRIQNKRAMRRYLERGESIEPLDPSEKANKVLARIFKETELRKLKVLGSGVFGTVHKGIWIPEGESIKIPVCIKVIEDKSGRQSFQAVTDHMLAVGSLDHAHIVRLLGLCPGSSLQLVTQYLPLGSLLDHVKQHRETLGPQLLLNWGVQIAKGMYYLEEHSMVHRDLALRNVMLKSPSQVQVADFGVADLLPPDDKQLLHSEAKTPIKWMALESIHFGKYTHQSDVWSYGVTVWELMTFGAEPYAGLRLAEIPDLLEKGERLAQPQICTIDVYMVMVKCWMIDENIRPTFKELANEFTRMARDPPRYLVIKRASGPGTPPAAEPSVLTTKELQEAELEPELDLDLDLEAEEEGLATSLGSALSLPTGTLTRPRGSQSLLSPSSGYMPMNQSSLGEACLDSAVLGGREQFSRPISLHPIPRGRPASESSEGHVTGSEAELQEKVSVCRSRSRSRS

binding [1]: binds
binding [2]: binds
binding [3]: binds
binding [4]: binds
B1: 35S-labelled in vitro translation product of pBK/Ebp1 (amino acids 1-373 of Ebp1) (domain or fragment, UniProt Q9UQ80 1-373)
chain: MSGEDEQQEQTIAEDLVVTKYKMGGDIANRVLRSLVEASSSGVSVLSLCEKGDAMIMEETGKIFKKEKEMKKGIAFPTSISVNNCVCHFSPLKSDQDYILKEGDLVKIDLGVHVDGFIANVAHTFVVDVAQGTQVTGRKADVIKAAHLCAEAALRLVKPGNQNTQVTEAWNKVAHSFNCTPIEGMLSHQLKQHVIDGEKTIIQNPTDQQKKDHEKAEFEVHEVYAVDVLVSSGEGKAKDAGQRTTIYKRDPSKQYGLKMKTSRAFFSEVERRFDAMPFTLRAFEDEKKARMGVVECAKHELLQPFNVLYEKEGEFVAQFKFTVLLMPNGPMRITSGPFEPDLYKSEMEVQDAELKALLQSSASRKTQKKKKKK
modifications: 35S-labelled
